According to patent US11147272B2, “Pyridone compounds and agricultural and horticultural fungicides comprising the same as active ingredients” (MITSUI CHEMICALS AGRO, INC., priority 2017, dated 2021):

Test system: Colletotrichum orbiculare
Experiment: Test Example H: Anthracnose on cucumber
Conditions: 250 ppm drug solution sprayed (2.5 ml/pot), cucumber Sagami Hanjiro, 6 to 10 days after inoculation

SMILES | Test H control value
CCn1c(-c2c(F)cccc2F)c(C(C)(O)C(C)C)cc(Br)c1=O (centres unmarked) [compound 522] | H (more than 50% control value)
CCn1c(-c2c(F)cccc2F)c(C(C)(OC)C(C)C)cc(Br)c1=O (centres unmarked) [compound 523] | H (more than 50% control value)
